Measured values taken from PubChem BioAssay AID504333 (National Center for Advancing Translational Sciences (NCATS), 2011).
Hit rate of the full screen: of about 360,000 compounds, about 16,000 (4.4%) were called active. The inconclusive results got no clear call from the source; some entries with a clear call stand among them for comparison. Calls follow the shape of the dose curve; as a rule, active = well fitted inhibition curve with a large enough effect; inconclusive = small, poorly fitted or top-dose-only effect; inactive = no such curve, though single readings can be large or run the other way. A potency beside an inconclusive call is a rough fit, not a confirmed value.

What follows are compounds tested against Bromodomain adjacent to zinc finger domain protein 2B (Homo sapiens) (UniProt Q9UIF8) (assay: qHTS Assay for Inhibitors of BAZ2B). Conditions: AlphaScreen BAZ2B-H3K14Ac peptide displacement; activity change, negative = inhibition: at 114 µM (top of the series).
Sequence of UniProt Q9UIF8 (Q9UIF8 whole entry, looked up, the tested form may be a part): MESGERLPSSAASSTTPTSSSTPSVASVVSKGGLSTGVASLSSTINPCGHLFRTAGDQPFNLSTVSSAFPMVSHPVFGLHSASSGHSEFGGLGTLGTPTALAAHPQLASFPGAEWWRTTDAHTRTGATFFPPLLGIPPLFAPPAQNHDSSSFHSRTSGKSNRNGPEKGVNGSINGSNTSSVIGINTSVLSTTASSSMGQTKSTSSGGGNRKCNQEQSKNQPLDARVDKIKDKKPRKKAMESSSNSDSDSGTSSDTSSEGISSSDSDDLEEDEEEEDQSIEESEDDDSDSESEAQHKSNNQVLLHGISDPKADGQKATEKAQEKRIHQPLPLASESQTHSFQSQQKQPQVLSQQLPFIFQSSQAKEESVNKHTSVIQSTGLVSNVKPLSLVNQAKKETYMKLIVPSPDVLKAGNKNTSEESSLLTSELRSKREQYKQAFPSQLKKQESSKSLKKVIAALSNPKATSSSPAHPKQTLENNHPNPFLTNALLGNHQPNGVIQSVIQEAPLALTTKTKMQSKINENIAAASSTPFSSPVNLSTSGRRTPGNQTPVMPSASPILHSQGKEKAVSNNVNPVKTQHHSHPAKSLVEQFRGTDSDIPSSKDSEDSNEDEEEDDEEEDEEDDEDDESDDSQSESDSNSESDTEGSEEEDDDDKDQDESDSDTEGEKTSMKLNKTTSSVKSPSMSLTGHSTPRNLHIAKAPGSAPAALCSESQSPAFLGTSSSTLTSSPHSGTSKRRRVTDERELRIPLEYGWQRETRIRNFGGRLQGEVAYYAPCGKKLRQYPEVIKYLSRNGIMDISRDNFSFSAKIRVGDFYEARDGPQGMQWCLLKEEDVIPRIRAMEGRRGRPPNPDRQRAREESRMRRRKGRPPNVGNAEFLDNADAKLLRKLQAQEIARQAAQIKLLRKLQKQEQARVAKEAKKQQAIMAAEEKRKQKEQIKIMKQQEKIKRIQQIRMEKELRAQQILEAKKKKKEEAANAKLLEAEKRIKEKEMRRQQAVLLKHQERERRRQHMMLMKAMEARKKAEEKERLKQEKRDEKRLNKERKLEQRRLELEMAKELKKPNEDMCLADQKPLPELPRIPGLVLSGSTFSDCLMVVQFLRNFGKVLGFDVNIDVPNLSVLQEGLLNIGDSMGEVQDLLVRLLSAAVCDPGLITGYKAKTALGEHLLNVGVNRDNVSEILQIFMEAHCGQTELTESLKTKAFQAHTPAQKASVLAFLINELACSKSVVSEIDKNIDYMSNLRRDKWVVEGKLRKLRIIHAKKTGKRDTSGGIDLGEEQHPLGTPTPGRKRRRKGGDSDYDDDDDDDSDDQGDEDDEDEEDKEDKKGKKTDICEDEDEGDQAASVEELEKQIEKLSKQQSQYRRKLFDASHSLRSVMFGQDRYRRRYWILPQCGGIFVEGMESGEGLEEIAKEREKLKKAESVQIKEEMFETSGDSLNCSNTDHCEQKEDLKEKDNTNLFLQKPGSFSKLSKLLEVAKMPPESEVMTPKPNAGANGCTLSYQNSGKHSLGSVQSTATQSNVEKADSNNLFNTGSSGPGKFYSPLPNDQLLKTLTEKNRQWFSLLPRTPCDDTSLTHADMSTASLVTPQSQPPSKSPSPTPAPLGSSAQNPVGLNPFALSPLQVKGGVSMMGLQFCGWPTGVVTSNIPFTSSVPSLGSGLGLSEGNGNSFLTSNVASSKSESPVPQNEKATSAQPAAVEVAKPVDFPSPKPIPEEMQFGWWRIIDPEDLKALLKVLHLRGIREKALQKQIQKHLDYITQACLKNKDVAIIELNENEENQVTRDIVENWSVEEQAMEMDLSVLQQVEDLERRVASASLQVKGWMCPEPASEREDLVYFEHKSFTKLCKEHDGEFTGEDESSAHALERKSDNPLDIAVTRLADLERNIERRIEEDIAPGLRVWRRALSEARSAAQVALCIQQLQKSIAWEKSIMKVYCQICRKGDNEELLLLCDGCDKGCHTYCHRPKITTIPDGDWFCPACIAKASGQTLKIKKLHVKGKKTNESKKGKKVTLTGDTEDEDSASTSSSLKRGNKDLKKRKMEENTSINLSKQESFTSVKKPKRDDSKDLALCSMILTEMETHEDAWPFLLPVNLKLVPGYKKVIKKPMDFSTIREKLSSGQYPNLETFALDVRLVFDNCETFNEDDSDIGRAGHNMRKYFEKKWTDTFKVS
Summary of the method: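 AlphaScreen displacement: compounds (up to 110uM) incubated 30 min at room temperature with a preformed 50 nM BAZ2B/50 nM biotinylated H3K14Ac peptide complex in PBS pH 7.4 with Tween-20. Donor and acceptor beads at 10 ug/mL final added, 20 min light-protected before reading.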
% is scaled to controls: 0 for no effect and ±100 for the full control effect; potency is read from the fitted curve at half-maximal effect; tags tell the direction and shape of the fitted curve.
Also: nearly all actives have a fitted effect of over 60% in size.

Row | SMILES | Potency | activity change, negative = inhibition
1 | C=C(C)C1CC=C(C)/C(=N\NC(=O)CCC(=O)Nc2ccc(C)c(C)c2)C1 (stereo not given) | inconclusive: 89.1 µM [inhibitor, single point] | –
2 | CCOC(=O)c1sc2ncn(CC(=O)Nc3ccc(OC)c(Cl)c3)c(=O)c2c1C | – | inactive: 3.3%
3 | C=CCNC(=O)c1ccc(OC2CCN(S(=O)(=O)N(C)C)CC2)cc1 | – | inactive: -18.1%
4 | COc1cccc(NC(=S)Nc2ccc(O)cc2)c1 | inconclusive: 70.8 µM [inhibitor, single point] | –
5 | [O-]/C(=C(\C(=S)Nc1ccc(Cl)cc1)[n+]1ccccc1)c1ccc(OC(F)F)cc1 | inconclusive: 44.7 µM [inhibitor, partial curve] | –
6 | Cc1c(Br)c([N+](=O)[O-])nn1C(C)C(=O)Nc1nccs1 (stereo not given) | active: 79.4 µM | –
7 | CC(=O)c1cccc(OCc2cc(C(=O)N3C[C@H]4CC[C@H]3C4)no2)c1 | – | inactive: -0.828%
8 | O=C(NCc1ccc2c(c1)OCO2)c1cnc2n(c1=O)CCS2 | inconclusive: 89.1 µM [inhibitor, single point] | –
9 | COCCNC(=S)N(CCc1c(C)[nH]c2ccc(Cl)cc12)Cc1cccnc1 | inconclusive: 50.1 µM [inhibitor, partial curve] | –
10 | COC(=O)c1ccsc1NC(=O)CCS(=O)(=O)c1ccccc1 | inconclusive: 1.58 µM [inhibitor, full curve, poor fit] | –
11 | Cc1cc(C)c2nc3sc(C(=O)N4CCOCC4)c(N)c3cc2c1 | – | inactive: -20%
12 | Cc1cccc(N2CCN(C(=O)Cc3ccccc3[N+](=O)[O-])CC2)c1C | inconclusive: 35.5 µM [inhibitor, partial curve] | –
13 | C=CCn1c(SCc2cccc(C#N)c2)nnc1-c1ccccc1O | – | inactive: 5.49%
14 | Cc1csc(=O)n1CCC(=O)OCC(=O)Nc1cc(Cl)ccc1[N+](=O)[O-] | inconclusive: 79.4 µM [inhibitor, single point] | –
15 | Cc1cccc(N=N/C(=C\O)C(=O)c2ccc(Br)cc2)c1 | inconclusive: 5.01 µM [inhibitor, full curve] | –
16 | O=[N+]([O-])c1cccc2nc(-c3ccccc3)c(-c3ccccc3)nc12 | inconclusive: 17.8 µM [inhibitor, full curve] | –
17 | C=C(C)Cn1c(SCC(=O)N/N=C/c2ccccc2OCC(=O)O)nnc1-c1ccc(Br)cc1 | inconclusive: 89.1 µM [inhibitor, single point] | –
18 | O=C(CCN1C(=O)/C(=C/c2ccccc2F)SC1=S)N[C@@H](CO)Cc1ccccc1 | inconclusive: 89.1 µM [inhibitor, single point] | –
19 | O=C(c1ccccc1)N1CCN(Cc2ccccc2Br)CC1 | active: 50.1 µM | –
20 | Cc1cc(/C=C2\SC(=S)N(Cc3ccco3)C2=O)c(C)n1-c1ccccc1 | inconclusive: 31.6 µM [inhibitor, partial curve] | –
21 | CCN(CC)C(=S)NC(=O)c1ccc(F)cc1 | inconclusive: 79.4 µM [inhibitor, partial curve] | –
22 | C=CCn1c(Cc2cccs2)nnc1SCC(=O)NCc1ccco1 | inconclusive: 89.1 µM [inhibitor, single point] | –
23 | Nc1ncc(-c2ccccc2)n1CC1CCCO1 (stereo not given) | active: 20 µM | –
24 | Cc1c(C)n(C)c2ccc(C(=O)NCCCN3CCN(c4ccccc4F)CC3)cc12 | inconclusive: 50.1 µM [inhibitor, partial curve] | –

Row | SMILES | Potency | activity change, negative = inhibition
25 | CC(=O)C1=C(O)C(=O)N(c2ccc(O)cc2)C1c1ccccc1 (stereo not given) | inconclusive: 89.1 µM [inhibitor, single point] | –
26 | CCOC(=O)N1CCC(NC(=O)c2ccc3c(c2)N(Cc2ccc(F)cc2)C(=O)c2ccccc2S3=O)CC1 (stereo not given) | – | inactive: -8.5%
27 | COc1ccc(CCNC(=O)c2nc(SCc3ccc(F)cc3)ncc2Cl)cc1OC | – | inactive: -5.25%
28 | O=C(c1ccco1)N1CCN(C(=O)c2ccc(-c3ccccc3Cl)o2)CC1 | inconclusive: 50.1 µM [inhibitor, partial curve] | –
29 | CCOc1cccc(/C=N/N2CCN(c3ccc(Cl)cc3)CC2)c1O | inconclusive: 56.2 µM [inhibitor, partial curve, poor fit] | –
30 | CCOC(=O)c1csc(-c2ccc([N+](=O)[O-])cc2)n1 | inconclusive: 70.8 µM [inhibitor, partial curve] | –
31 | COC(=O)c1cc(C(=O)OCC(=O)N2c3ccccc3NC(=O)C2(C)C)cc([N+](=O)[O-])c1 | inconclusive: 89.1 µM [inhibitor, single point] | –
32 | CCc1ccc(NC(=O)Cn2c(C(=O)OC)cc3oc(C)cc32)cc1 | – | inactive: -17.2%
33 | Cc1ccc(NC(=O)COc2coc(CN3c4ccccc4CC3C)cc2=O)c(C)c1 (stereo not given) | inconclusive: 50.1 µM [inhibitor, partial curve] | –
34 | Cc1ccc(OCc2nnc(NC(=O)c3ccco3)s2)c(C)c1 | inconclusive: 89.1 µM [inhibitor, single point] | –
35 | Cc1ccc(C)c(NC(=O)CSc2nnc(NC(=O)Nc3ccccc3)s2)c1 | – | inactive: -12.3%
36 | COc1ccc(/C=N/n2c(C3CCCCC3)n[nH]c2=S)c(OC)c1 | inconclusive: 50.1 µM [inhibitor, partial curve] | –
37 | COC(=O)c1c(C)oc2ccc(N(C(=O)Oc3ccccc3)S(=O)(=O)c3ccc(Cl)c([N+](=O)[O-])c3)cc12 | inconclusive: 44.7 µM [inhibitor, partial curve] | –
38 | CCOc1cc(/C=N/NC(=O)c2cccc(S(=O)(=O)N3CCCC3)c2)ccc1OCC(=O)N(C)C | – | inactive: -5.51%
39 | CC(=O)c1ccc(N2CCN(C(=O)Nc3cn(CC(C)C)c(=O)c4ccccc34)CC2)cc1 | – | inactive: 7.93% [at 57.1 µM]
40 | Cc1ccc(OCCOc2ccc(S(=O)(=O)N3CCCC3)cc2C(N)=O)cc1 | – | inactive: 0.819%
41 | N#C/C(=C\c1ccc(N2CCCCC2)o1)C(N)=O | active: 28.2 µM | –
42 | Nc1c2nc(-c3ccccc3Cl)[nH]c(=O)c2nc(=O)n1-c1ccccc1 | inconclusive: 63.1 µM [inhibitor, partial curve, poor fit] | –
43 | CC(=O)c1ccc(C(=O)Nc2nnc(-c3ccc(Cl)cc3)o2)cc1 | inconclusive: 89.1 µM [inhibitor, single point] | –
44 | Cc1cccc(-c2nc(C#N)c(NC3CCCCC3)o2)c1 | inconclusive: 35.5 µM [inhibitor, full curve, poor fit] | –
45 | S=C(N/N=C1\C2CN3CCN(C2)CC1(c1ccccc1)C3)Nc1ccccc1 | inconclusive: 50.1 µM [inhibitor, partial curve] | –
46 | COc1ccccc1-n1c(SCC(N)=O)nc2sc3c(c2c1=O)CCC3 | – | inactive: -27.6%
47 | Cc1[nH]c(=O)[nH]c(=O)c1/C=N/NC(=O)[C@@H](N)CC(C)C | active: 50.1 µM | –
48 | CCc1nnc(NS(=O)(=O)c2ccc(N3C(=O)c4ccc(C(=O)O)cc4C3=O)cc2)s1 | inconclusive: 89.1 µM [inhibitor, single point] | –

Row | SMILES | Potency | activity change, negative = inhibition
49 | CCOc1ccc2nc(NC(=O)CN3CCN(c4ccccn4)CC3)sc2c1 | inconclusive: 89.1 µM [inhibitor, single point] | –
50 | CCOc1ccc(NC(c2ccccn2)c2oc(CO)cc(=O)c2O)cc1 (stereo not given) | active: 20 µM | –
51 | Cc1c(C(=O)c2ccccc2)c2ccccn2c1CCc1ccccn1 | active: 70.8 µM | –
52 | COCC(C)NC(=O)c1ccc2nc(-c3ccccc3)c(-c3ccccc3)nc2c1 (stereo not given) | inconclusive: 79.4 µM [inhibitor, single point] | –
53 | Cc1ccc(S(=O)(=O)/N=C(/NC(=S)Nc2cccc(C)c2)c2ccccc2)cc1 | – | inactive: -4.35%
54 | Cc1ccc(Cl)cc1Nc1nc(-c2cccnc2)cs1 | inconclusive: 44.7 µM [inhibitor, full curve] | –
55 | CC1=C(C(=O)c2ccccc2)C(c2ccc(OC(F)F)cc2)NC(=S)N1 (stereo not given) | inconclusive: 79.4 µM [inhibitor, single point] | –
56 | CC(NCc1cccs1)C(=O)NC1CCCCC1 (stereo not given) | active: 39.8 µM | –
57 | CCOc1cc(/C=C2\CN(C)C/C(=C\c3ccc(O)c(OCC)c3)C2=O)ccc1O | active: 44.7 µM | –
58 | Cc1ccc(Nc2nc(-c3sc(N)nc3C)cs2)cc1 | active: 39.8 µM | –
59 | CCOC(=O)N1CCC(NC(=O)C2CCCN(Cc3nc(-c4ccc(CC)cc4)oc3C)C2)CC1 (stereo not given) | inconclusive: 89.1 µM [inhibitor, single point] | –
60 | CCCS(=O)(=O)c1nc(S(=O)(=O)c2ccc(C)cc2)c(NCC(C)C)s1 | – | inactive: 0.111%
61 | C=C(C)C(=O)Nc1cccc(C2=NOC3(C2)C[C@@H](C(N)=O)N(C(=O)c2cc([N+](=O)[O-])cc([N+](=O)[O-])c2)C3)c1 (stereo not given in full) | active: 28.2 µM | –
62 | CC(CNc1nc2ccccc2c2nc(-c3ccccc3)nn12)c1ccccc1 (stereo not given) | – | inactive: 3.39%
63 | COc1cccc(CNC2CCCc3ccccc32)c1OC (stereo not given) | inconclusive: 70.8 µM [inhibitor, single point] | –
64 | CC(C)CC(NS(=O)(=O)c1ccccc1S(=O)(=O)NC(CC(C)C)C(=O)O)C(=O)O (stereo not given) | inconclusive: 89.1 µM [inhibitor, single point] | –
65 | COc1ccc(C2CC(c3ccccc3)=NN2c2ccc(N)cc2)cc1 (stereo not given) | active: 39.8 µM | –
66 | CCCN1C/C(=C/c2cccc([N+](=O)[O-])c2)C(=O)/C(=C/c2cccc([N+](=O)[O-])c2)C1 | inconclusive: 44.7 µM [inhibitor, partial curve] | –
67 | CCSc1nc2sc3c(c2c2[n+]1CC(CBr)O2)CCCC3 (stereo not given) | active: 56.2 µM | –
68 | NC(=S)n1[nH]c(-c2ccc([N+](=O)[O-])cc2)c(N=Nc2ccc(O)cc2)c1=O | active: 50.1 µM | –
69 | O=C(NCCS(=O)(=O)N1CCN(c2ccc(F)cc2)CC1)c1ccccc1Br | – | inactive: -5.66%
70 | O=c1c(Cc2ccccc2)c(O)ccn1Cc1ccc2c(c1)OCO2 | inconclusive: 89.1 µM [inhibitor, single point] | –
